Experimental data from the RNAGym collection of RNA variant scans (doi:10.7554/elife.90254).
The source gives no read counts; variants with many changes may rest on few reads.

B1: LINE1-mini (parent)
chain: GGCAGAGCUCAACACAGCGUGGCAAAGUGGCUGUGGCUAGACUGCC

Variants of: B1
Assay: self-cleavage, relative activity (ratio to wild type); higher = more cleavage; in vitro, sequencing; the parent is a self-cleaving ribozyme

Variant | self-cleavage
A16G G29U A41C | 0.05
A16C G17A C23U G33U G40U | 0.02
A16C A24U A25C A26U C42U | 0.01
A16C G17C C31G G35A | 0.02
A16G G19A C31U G33C C37A A39U | 0.02
A16C G33U U38G | 0.01
A16G G21A G36U U38G | 0.02
A16G G21A G22U U28C | 0.11
A16C C18U G19U G29C C31A G33U | 0.04
A16G G36U C37A C45U | 0.04
A16C G17U G21U | 0.07
A16G G17U G44U | 0.07
A16G C23A U28A U32G | 0.09
A16G G36C A39U C46G | 0.01
C15U G22U C31U | 0.07
C15U G22C C46U | 0.17
A16G C23U G33A | 0.02
A16G C18A G22A C31U C37U | 0.05
A16G C23G C42G | 0.02
A16C C18U G19A | 0.11
A16C G35A G36A | 0.14
A16C A26C A39G | 0.04
A16G U20A G27A G35U | 0.02
A16C C18A G30C C42G | 0.02

Variant | self-cleavage
C15U G36C U38A C42A | 0.02
A16G U28G A41G | 0.25
A16C G22U G44C | 0.04
A16G U34C G40U C42G G44A | 0.01
A16C G17A G27U U32A G33U G36C A39G | 0.01
A16G C18G C23U U28A C37U | 0.01
A16C G29A U43A | 0.05
A16C U32A C46A | 0.03
A16G A41U U43A | 0.01
A16G C18U U38A C46A | 0.22
A16G G21U G36U | 0.03
A16G A41U G44C | 0.03
A16C C23U U32G C45A | 0.22
A16C G17C U28C | 0.12
C15U U20G C37G C45G | 0.04
A16C U32G G36U A41U C42U | 0.03
A16C C18U G22C C42A | 0.04
A16G G21C G22C | 0.53
C15U G19U G35U | 0.03
A16G G19U G27A C31U | 0.16
A16C A24U G40U | 0.03
C15U U28C G40U | 0.2
A16G G22A U28A C42U | 0.02
C15U U34C C42G | 0.18

Variant | self-cleavage
A16G G21C C31G G33C | 0.02
A16C G33A G36A | 0.02
A16G G27C G40A | 0.02
A16C C18U G30C G44A | 0.09
A16G C18G U28G G29A U32A | 0.05
A16G A24C C37U | 0.01
A16C U28C G35A C46U | 0.17
A16G A25U C46A | 0.12
A16C U32C C42U | 0.02
A16C G17A G30U G33A G35A A39U | 0.03
A16C C18U U38A C46A | 0.03
A16C A24G A25C U28G A39C G40U | 0
A16G A25U G33C U34G C46G | 0.01
A16C G29C C45A | 0.14
C15U G30A G33C A39G | 0.09
C15U G36U U43A G44A | 0.26
A16C A24G G27C G44U | 0.02
A16G G19C U20A C31U U43C | 0.01
A16C U20C G22A U32A C42G | 0.02
A16C C31A C42A | 0.05
C15U G27U G40U | 0.09
A16C G21U G29C A39U | 0.15
A16G C31A U34A G35A A39G G40A A41C U43A | 0
A16G G17U G21U A24C | 0.2

Variant | self-cleavage
A16C C18U G29C | 0.3
A16G A25C G35A C45U | 0.06
A16C U28C G29A A39U C42A | 0.01
A16C G33U C42U | 0.12
A16C G30A G33U | 0.26
C15U U28C U34A | 0.01
A16G C31U C45G | 0.03
A16G C42G C46G | 0.04
A16C U20C A24U U34C | 0
A16G G29A G44C | 0.11
A16G A25G G36U C46A | 0.03
C15U U32C U38C | 0.04
C15U G21U C46U | 0.53
A16C G29U G30C G44A | 0.04
A16G C18U G29A | 0.35
C15U G30U U32A | 0.03
A16G C23U G44U | 0.12
A16G G44C C46G | 0.05
C15U G22U U43A C46A | 0.03
A16G C31G C37G G40A | 0
C15U G36A U43A | 0.05
A16C G17C G30C | 0.14
A16C C18G G22U C23U C45G | 0.04
A16C A25C U28A C42A | 0.07

Variant | self-cleavage
A16C G21A C23U C45A | 0.06
A16C G17A C18G U38G | 0.01
A16G G29A U38G C46G | 0.02
A16C U20G G21A G22U C23A | 0.26
A16G G17A G30C C37G | 0.04
A16C U34A G44C | 0.05
A16C A26C C37U A41U | 0.02
A16G G21A G29U G44A | 0.26
A16G U20G G30A C31A | 0.04
A16G G17U C23G G36A A39U | 0.09
C15U G29A G30A | 0.3
A16G G17C G27C G29C | 0.07
A16C G30U G44U | 0.03
A16G G21C A26U | 1.2
A16G G30C C42G | 0.02
A16G C37G C45A | 0.05
A16C G29A U32C | 0.04
A16G U28G G40U | 0.02
A16G G19C U38C | 0.03
A16C G27C A39G C42U | 0.04
C15U U28A G29C C45U | 0.78
A16C G17C G27C | 0.05
A16G C18U U28G C46G | 0.03
A16C C37G C42U | 0.03

Variant | self-cleavage
A16G C18G A24C G33U A41G C45U | 0.01
A16C G27A U28C | 0.12
A16G G36A A39G C42U | 0.02
C15U G22A G30A G35U G36C U43C | 0.02
A16G A25G G33C | 0.49
A16C G29C G30A G33C | 0.06
A16G A24G U34C | 0.01
A16G A24G C46A | 0.38
C15U U20C G27U A41C | 0.04
A16C G17A C18A U20A | 0.04
C15U G27A U34G A41C | 0.03
A16C C31U U32C | 0.03
A16C U20C A41C | 0.05
A16C G21A G35U G36A | 0.18
A16G G17C G36U | 0.01
C15U U34A C37U | 0.05
A16G G27C U38A | 0.04
A16G G17C G19C G22C C42A | 0.02
A16G C37A G44C | 0.04
A16C C18U U20G G44U | 0.02
A16C G22C C23U G33A G40A | 0.01
A16G C31A G36C U43A | 0.01
A16G A24U U32C C45A | 1.56
A16G G21C U34A | 0.01

Variant | self-cleavage
C15U U28A U43C | 0.06
A16G G22A G36C | 0
A16C G17U U38A C46G | 0.04
C15U G21C G22A | 2.78
C15U G29U A39C | 0.11
A16C A24C G35U | 0.01
A16G G17U U20G G22A A24G U34C U43G C46U | 0.08
A16C G27A U32C G40C C42G | 0.07
C15U G30A C31U | 0.07
A16G A24C G30U | 0.19
A16C C23U U32G G35C G44U | 0.02
A16G C18U G33U | 0.16
A16C G19A G35C | 0.02
C15U G35A G44C | 0.03
A16C G19A C23A G40U | 0.05
A16G G19A U20C | 0.07
A16G C31U G40U | 0.01
C15U G29U G30U G44A | 0.01
A16G A25C U38A A39C | 0.17
C15U G44U C46G | 0.04
C15U G21C A24U G40U U43G | 0.14
C15U G22U C37A A41G | 0.01
A16C G17C G33A | 0.06
